Among all 48,000 compounds or so, about 120 (0.25%) were called active. Not shown: some 4% with an inconclusive outcome. Calls follow the shape of the dose curve; as a rule, active = well fitted activation curve with a large enough effect; inconclusive = small, poorly fitted or top-dose-only effect, or another doubt; inactive = no such curve, though single readings can be large or run the other way. This is one part of the list.
Test: Primary qHTS for Identification of Small Molecule Activators of Huntingtin-Antisense Promoter Activity; also: nearly all actives have a fitted effect of over 55% in size
Details: HEK293 HTT-AS promoter firefly luciferase reporter, 24 h; series mostly up to 57.5 µM; activity change, positive = activation: at the top concentration
How it was run: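 Luminescence was read after Dual-Glo reagent and a 10 min room-temperature incubation. Values were normalized to vehicle (0% activity) and zero RLU (-100% activity). Reporter HEK293 cells had been exposed to compounds (up to 57.5 uM final) for 24 h.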

Structure (SMILES)	activity change, positive = activation
C=CC[N+]1([C@H]2C[C@H]3[C@@H]4CC[C@H]5C[C@H](O)[C@@H](N6CCOCC6)C[C@]5(C)[C@@H]4CC[C@]3(C)[C@H]2OC(C)=O)CCCC1	inactive: -7.42%
Cc1ccc(NC(=O)C(C)n2nnc3sc4c(c3c2=O)CCCC4)cc1Cl (configuration not stated)	inactive: -13.7%
Cc1c(Cl)cccc1NC(=O)c1ncoc1-c1ccco1	inactive: 12.3%
Oc1ccc(NCc2ccccc2OCc2ccccc2F)cc1	inactive: -1.7%
CC(=O)c1ccc(NC(=O)CCCSc2nc(-c3ccco3)cc(C(F)(F)F)n2)cc1	inactive: -39.2%
CCc1ccc(NC(=O)CSc2nc3ccccc3c(=O)n2CCNC(C)=O)cc1	inactive: 4.22%
Cc1ccc(C(C)(O)c2nc3ccccc3s2)c(C)c1 (configuration not stated)	inactive: -14.5%
CCOC(=O)c1cccc(Nc2cc(-c3ccccc3)ncn2)c1	inactive: -41%
CCOC(=O)c1c(C)[nH]c(CCC(=O)NCc2ccccc2Cl)c1C	inactive: -19%
Cc1c(Cl)cccc1NC(=O)c1ccc2snnc2c1	inactive: -3.74%
COc1ccccc1NC(=O)CCN1CCCCC1	inactive: -9.7%
CCOc1ccc(OCC)c(NC(=O)C2CCN(c3nnc(-n4cccc4)s3)CC2)c1	inactive: -11.7%
Cc1nc(-c2ccccc2)sc1CCNC(=O)C(=O)Nc1ccc2c(c1)OCO2	inactive: 0.246%
CC(=O)c1ccc(Nc2cc(C)nc3nc(Cc4ccc(Cl)cc4)nn23)cc1	inactive: -35.5%
CCc1ccc2oc(C(=O)Nc3cc(C)ccc3C)cc(=O)c2c1	inactive: 25.6% [at 11.5 µM, percent change from vehicle, -100% = no light]
O=C(Nc1cc2c(cc1C(=O)c1ccccc1Cl)OCCO2)c1ccccc1	inactive: -28.7%
CC(C)c1nn2c(=O)cc(COC(=O)c3ccccc3NC(=O)C3CCCCC3)nc2s1	inactive: -1.68%
CC1Cc2ccccc2N1C(=O)CSc1nnc(-c2ccccc2Cl)o1 (configuration not stated)	inactive: -10.2%
CN(C)c1ccc(CNC(=O)c2ccccc2NC(=O)c2nsc3ccccc23)cc1	inactive: 19.8%
CCCOc1ccc(CNC(=O)c2ccc(-n3c(C)cc4c3CCC(C)C4)cc2)cc1 (configuration not stated)	inactive: -9.91%
Cc1cc2oc(C(=O)Nc3ccc(S(=O)(=O)Nc4ncccn4)cc3)cc(=O)c2cc1C	inactive: 8.18%
Cc1ccc(NC(=O)Cn2ccn(-c3ccccc3)c(=O)c2=O)cc1	inactive: -6.45%
CCN(C(=O)CSc1nc2ccccc2[nH]1)c1ccccc1	inactive: -4.85%
Cc1ccc(Cn2cc(S(=O)(=O)c3cccc(Cl)c3)c(=O)c3cc(F)c(N4CCOCC4)cc32)cc1	inactive: 6.18%
CCOc1ccc(C2NC(=O)c3c(COC)cc(C)nc3N2Cc2ccccc2)cc1OC (configuration not stated)	inactive: -1.52%
CC1CCC(Nc2nc3c(-c4cccc(C(F)(F)F)c4)nnn3c3ccccc23)CC1 (configuration not stated)	inactive: -4.08%
Cc1ccc(C)c(N2CCN(C(=O)c3ccc4c(c3)N(Cc3ccc(F)cc3)C(=O)c3ccccc3S4=O)CC2)c1 (configuration not stated)	inactive: -5.69%
